From PMC12501022
No constants are given. Whether binding was seen depends on the method and setting. In cells and extracts the contact can be indirect. Some entries that bind do so weakly or less than the wild type. For some of these results: Where a sequence is shown, tags or fusion partners need not be part of it.

Sequences of proteins named here, by UniProt entry; tags and fusion partners are left off.
UniProt P08670: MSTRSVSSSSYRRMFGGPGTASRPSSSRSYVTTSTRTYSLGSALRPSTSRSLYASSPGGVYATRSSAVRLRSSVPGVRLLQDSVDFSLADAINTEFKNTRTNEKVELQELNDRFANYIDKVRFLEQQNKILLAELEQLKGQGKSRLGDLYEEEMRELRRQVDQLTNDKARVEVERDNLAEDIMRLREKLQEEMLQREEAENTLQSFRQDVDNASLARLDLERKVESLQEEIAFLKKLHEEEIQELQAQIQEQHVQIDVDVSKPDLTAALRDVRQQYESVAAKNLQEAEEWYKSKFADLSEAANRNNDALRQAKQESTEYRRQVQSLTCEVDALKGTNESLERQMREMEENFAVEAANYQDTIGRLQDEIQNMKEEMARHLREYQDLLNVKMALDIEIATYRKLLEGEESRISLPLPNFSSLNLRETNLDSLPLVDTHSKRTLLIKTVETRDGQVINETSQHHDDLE
UniProt O60238: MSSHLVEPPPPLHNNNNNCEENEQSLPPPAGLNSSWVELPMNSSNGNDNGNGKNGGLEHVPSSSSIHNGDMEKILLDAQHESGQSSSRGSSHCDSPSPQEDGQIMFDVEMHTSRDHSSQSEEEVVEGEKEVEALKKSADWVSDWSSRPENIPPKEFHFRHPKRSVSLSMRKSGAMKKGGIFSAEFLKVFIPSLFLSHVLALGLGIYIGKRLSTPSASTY
UniProt Q96CV9: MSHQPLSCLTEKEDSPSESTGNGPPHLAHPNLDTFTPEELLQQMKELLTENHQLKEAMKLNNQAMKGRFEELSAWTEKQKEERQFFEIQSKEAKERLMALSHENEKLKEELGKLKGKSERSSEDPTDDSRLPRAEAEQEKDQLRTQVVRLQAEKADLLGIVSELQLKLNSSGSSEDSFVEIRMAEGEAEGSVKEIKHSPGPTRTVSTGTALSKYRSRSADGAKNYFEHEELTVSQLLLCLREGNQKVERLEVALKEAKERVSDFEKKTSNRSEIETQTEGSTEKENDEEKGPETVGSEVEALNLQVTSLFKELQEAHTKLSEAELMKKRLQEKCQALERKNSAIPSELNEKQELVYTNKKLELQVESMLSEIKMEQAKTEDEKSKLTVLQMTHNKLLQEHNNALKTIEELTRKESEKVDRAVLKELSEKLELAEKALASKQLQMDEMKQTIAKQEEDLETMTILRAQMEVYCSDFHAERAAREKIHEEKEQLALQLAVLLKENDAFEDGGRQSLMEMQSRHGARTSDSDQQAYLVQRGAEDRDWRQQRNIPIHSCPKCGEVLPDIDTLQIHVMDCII
UniProt P19474: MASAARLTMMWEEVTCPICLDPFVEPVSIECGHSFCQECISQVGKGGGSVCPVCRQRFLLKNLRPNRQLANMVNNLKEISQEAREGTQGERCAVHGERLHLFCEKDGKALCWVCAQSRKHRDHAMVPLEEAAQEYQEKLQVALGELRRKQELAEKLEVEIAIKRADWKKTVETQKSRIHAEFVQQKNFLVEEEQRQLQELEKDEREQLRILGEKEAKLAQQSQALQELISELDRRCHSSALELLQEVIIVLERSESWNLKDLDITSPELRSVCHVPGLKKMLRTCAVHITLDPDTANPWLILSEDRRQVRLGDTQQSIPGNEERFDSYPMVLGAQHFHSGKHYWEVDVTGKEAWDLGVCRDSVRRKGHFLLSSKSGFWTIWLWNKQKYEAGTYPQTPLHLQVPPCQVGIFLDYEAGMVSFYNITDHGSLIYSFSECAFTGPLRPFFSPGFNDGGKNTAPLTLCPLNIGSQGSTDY

Assays:
[1] = target: Vimentin, endogenous (human (endogenous in SW48, DLD1, HCT116, LoVo)) (UniProt P08670); test: co-IP; endogenous proteins in lysates (RIPA) of colorectal cancer cells (SW48, DLD1, HCT116, LoVo); IP with anti-TM9SF1, anti-Vimentin or anti-Tollip antibody, protein A/G agarose, western blot
Flag-NDP52 = target: T1, Flag-NDP52 (UniProt Q13137); test: co-IP; 293T co-transfected with Myc-Vimentin and a Flag-tagged cargo receptor for 48 h; IP with anti-Flag, blot with anti-Flag and anti-Myc
T1 sequence: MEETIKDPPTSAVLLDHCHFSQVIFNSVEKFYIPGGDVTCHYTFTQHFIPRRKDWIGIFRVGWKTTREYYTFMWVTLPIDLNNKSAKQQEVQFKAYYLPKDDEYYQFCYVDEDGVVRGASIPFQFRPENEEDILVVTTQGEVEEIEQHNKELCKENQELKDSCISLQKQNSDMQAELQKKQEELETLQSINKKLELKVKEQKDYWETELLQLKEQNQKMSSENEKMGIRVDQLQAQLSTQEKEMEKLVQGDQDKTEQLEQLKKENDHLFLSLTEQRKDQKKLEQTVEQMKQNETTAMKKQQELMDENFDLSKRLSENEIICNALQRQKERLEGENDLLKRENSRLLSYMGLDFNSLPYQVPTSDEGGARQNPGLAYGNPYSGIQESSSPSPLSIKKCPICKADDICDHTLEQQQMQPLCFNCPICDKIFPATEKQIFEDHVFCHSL

Flag-NIX = Flag-NIX (UniProt O60238); test: as above
Flag-NBR1 = target: T2, Flag-NBR1 (UniProt Q14596); test: as above
T2 sequence: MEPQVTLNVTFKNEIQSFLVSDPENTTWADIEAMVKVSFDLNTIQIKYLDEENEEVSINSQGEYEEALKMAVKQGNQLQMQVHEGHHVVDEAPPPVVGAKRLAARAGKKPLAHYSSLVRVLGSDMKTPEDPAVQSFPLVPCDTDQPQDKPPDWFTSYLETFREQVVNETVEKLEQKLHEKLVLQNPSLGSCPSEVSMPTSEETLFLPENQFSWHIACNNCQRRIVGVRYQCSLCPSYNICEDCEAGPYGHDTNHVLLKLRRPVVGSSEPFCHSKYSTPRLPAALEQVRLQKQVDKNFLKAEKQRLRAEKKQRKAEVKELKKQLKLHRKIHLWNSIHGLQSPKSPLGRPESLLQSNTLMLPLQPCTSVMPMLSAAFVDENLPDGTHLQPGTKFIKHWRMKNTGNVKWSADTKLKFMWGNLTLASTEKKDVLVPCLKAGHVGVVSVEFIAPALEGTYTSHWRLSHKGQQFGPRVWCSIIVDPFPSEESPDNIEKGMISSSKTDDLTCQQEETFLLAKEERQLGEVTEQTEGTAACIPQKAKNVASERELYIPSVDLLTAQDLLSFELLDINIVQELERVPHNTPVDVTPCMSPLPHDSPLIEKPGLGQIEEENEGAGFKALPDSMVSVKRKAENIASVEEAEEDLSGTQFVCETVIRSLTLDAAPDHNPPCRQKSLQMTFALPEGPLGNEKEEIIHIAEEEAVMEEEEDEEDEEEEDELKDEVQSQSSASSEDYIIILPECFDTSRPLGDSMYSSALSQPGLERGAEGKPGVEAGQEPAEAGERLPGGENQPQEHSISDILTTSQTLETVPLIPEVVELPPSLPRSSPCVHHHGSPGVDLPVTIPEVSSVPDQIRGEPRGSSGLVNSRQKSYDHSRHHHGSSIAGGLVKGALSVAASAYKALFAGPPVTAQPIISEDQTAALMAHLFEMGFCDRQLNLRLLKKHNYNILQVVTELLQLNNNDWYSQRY

Flag-OPTN = Flag-OPTN (UniProt Q96CV9); test: as above
[2] = target: transmembrane 9 superfamily member 1 (TM9SF1), endogenous (human (endogenous in SW48, DLD1, HCT116, LoVo)) (UniProt O15321); test: co-IP; endogenous proteins in lysates (RIPA) of colorectal cancer cells (SW48, DLD1, HCT116, LoVo); IP with anti-TM9SF1, anti-Vimentin or anti-Tollip antibody, protein A/G agarose, western blot
Flag-TM9SF1 (human) = Flag-TM9SF1 (human) (UniProt O15321); test: co-IP; HCT116 or LoVo transfected with Flag-TM9SF1 for 48 h; IP with anti-Flag, blot with anti-TRIM21, anti-Vimentin, anti-Tollip and anti-Flag
Myc-Vimentin (human) = Myc-Vimentin (human) (UniProt P08670); test: co-IP; Myc-Vimentin transfected in HCT116, LoVo, SW48 or DLD1; IP with anti-Myc, blot for endogenous Tollip and TRIM21; cells with Flag-TM9SF1 overexpression or vector, TM9SF1 knockdown, TRIM21 knockdown, CQ (50 μM) for 4 h
[3] = target: Vimentin, endogenous (human (endogenous in SW48, DLD1, HCT116, LoVo)) (UniProt P08670); test: co-IP; Fig. S6B-D, legend not shown; method taken from the paper's methods (co-IP is the only blot-based binding assay described); constructs and cells not told

transmembrane 9 superfamily member 1 (TM9SF1), endogenous (from UniProt O15321 28-606)
binding [1]: binds

Myc-Vimentin (from UniProt P08670 1-466)
binding (Flag-NDP52): no binding | binding (Flag-NIX): no binding | binding (Flag-NBR1): no binding | binding (Flag-OPTN): no binding

Vimentin, endogenous (from UniProt P08670 1-466)
binding [2]: binds | binding (Flag-TM9SF1 (human)): binds

tripartite motif containing 21 (TRIM21), endogenous (from UniProt P19474 1-475)
binding (Myc-Vimentin (human)): binds | binding (Flag-TM9SF1 (human)): binds | binding [3]: binds
